# Assay results published in the supplement of paper PMC4967469.
# pIC50: −log10 of the molar value. Lines with a small IC50 respond at low doses; a limit (>, <) means that the fit lies beyond the doses tested. For AUC the same curve is integrated over the 256-fold range of doses and scaled to a fraction; the more sensitive the line, the further below 1. For some assays here: Where the top dose is marked as inferred, it comes from the curve model; the source does not state it. For some assays here: An entry number marks a drug with two screens in the source, which often give different values.
# What was measured:
# Test in all cases: Viability of human cancer cell lines after 72 h of drug (GDSC screen)
# [1] = compound: S=C(NCc1ccc2c(c1)OCO2)N1CCN(c2ncnc3c2oc2ccccc23)CC1 [MP470]; details: top dose 20 µM; top dose inferred
# Protocol: (§1)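 Human cancer cell lines in 384-well plates, medium with 10% serum, drug for 72 h over a 256-fold dose range (nine 2-fold or five 4-fold steps up to the top dose). Adherent lines were fixed and stained with the nucleic acid dye Syto60, suspension lines read with resazurin; signal relative to control wells, capped at 0 and 100%. One two-parameter sigmoid per drug and line, fitted in a mixed model over all curves with the slope shared within a line.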
# [2] = compound: CCNC(=O)c1noc(-c2cc(C(C)C)c(O)cc2O)c1-c1ccc(CN2CCOCC2)cc1 [AUY922]; details: top dose 0.256 µM; top dose inferred
# Protocol: as §1
# [3] = compound: NC(=O)c1cccc(-c2cc(Nc3ccc(OC(F)(F)F)cc3)ncn2)c1 [GNF-2]; details: top dose 1.28 µM; top dose inferred
# Protocol: as §1
# [4] = compound: CC(O)(CS(=O)(=O)c1ccc(F)cc1)C(=O)Nc1ccc(C#N)c(C(F)(F)F)c1 [Bicalutamide]; details: top dose inferred
# Protocol: as §1
# [5] = compound: Nc1ccn([C@@H]2O[C@H](CO)[C@@H](O)C2(F)F)c(=O)n1 [Gemcitabine]; details: top dose 1.024 µM
# Protocol: as §1
# [6] = compound: CC(C)c1ccccc1Cc1cc(C(=O)Nc2ccc(S(=O)(=O)c3ccccc3C(C)(C)C)cc2)c(O)c(O)c1O [TW-37]; details: top dose 5 µM
# Protocol: as §1
# [7] = compound: O=S(=O)(c1ccccc1)N(CC(F)(F)F)c1ccc(C(O)(C(F)(F)F)C(F)(F)F)cc1 [T0901317]; details: top dose 10.24 µM; top dose inferred
# Protocol: as §1
# [8] = compound: Cc1cn(-c2cc(NC(=O)c3ccc(C)c(Nc4nccc(-c5cccnc5)n4)c3)cc(C(F)(F)F)c2)cn1 [Nilotinib]; details: top dose 2 µM
# Protocol: as §1
# [9] = compound: Cc1ccc(Nc2cc(-c3cccc(N4C(=O)c5ccccc5C4=O)c3)ncn2)cc1NS(C)(=O)=O [KIN001-270]; details: top dose 20 µM; top dose inferred
# Protocol: as §1
# [10] = compound: C/C(O)=C(\C#N)C(=O)Nc1cc(Br)ccc1Br [LFM-A13]; details: top dose 16 µM; top dose inferred
# Protocol: as §1
# [11] = top dose 1.024 µM, screen: GDSC drug entry 150
# [12] = top dose 10 µM, screen: GDSC drug entry 1502
Cell Line,AUC [1],pIC50 [1],AUC [2],pIC50 [2],AUC [3],pIC50 [3],"AUC [4, 11]","pIC50 [4, 11]","AUC [4, 12]","pIC50 [4, 12]",AUC [5],pIC50 [5],AUC [6],pIC50 [6],AUC [7],pIC50 [7],AUC [8],pIC50 [8],AUC [9],pIC50 [9],AUC [10],pIC50 [10]
"GAK (melanoma, adherent)",0.85,4.85,0.671,7.33,0.989,< 5.89,0.989,< 5.99,0.965,< 5.00,0.707,6.63,0.771,5.74,0.971,< 4.99,0.989,< 5.70,0.985,< 4.70,,
"IM-9 (myeloma, suspension)",,,0.734,7.18,0.982,< 5.89,0.991,< 5.99,0.983,< 5.00,0.753,6.52,0.605,6.24,,,0.992,< 5.70,,,0.983,< 4.80
"KASUMI-1 (acute myeloid leukaemia, suspension)",0.506,5.89,,,0.985,< 5.89,,,0.965,< 5.00,,,0.698,5.95,0.923,< 4.99,0.455,7.03,,,,
"KELLY (neuroblastoma, adherent)",0.672,5.44,0.85,6.78,0.989,< 5.89,0.989,< 5.99,0.984,< 5.00,,,0.283,7.09,0.941,< 4.99,0.985,< 5.70,0.977,< 4.70,0.98,< 4.80
